Reference: PubChem BioAssay AID504832 (National Center for Advancing Translational Sciences (NCATS), 2011)
Out of some 310,000 compounds screened, about 18,000 (5.8%) were called active. This list was built around the results that the source calls inconclusive (neither active nor inactive); the mix of calls is not that of the screen. Calls come from the whole dose curve; as a rule, active = well fitted inhibition curve with a large enough effect; inconclusive = small, poorly fitted or top-dose-only effect, or another doubt; inactive = no such curve, though single readings can be large or run the other way. No potency is given beside an inconclusive call; the fits are too rough.

Assay: Primary qHTS for delayed death inhibitors of the malarial parasite plastid, 48 hour incubation
Details: P. falciparum luciferase growth in erythrocytes; series mostly up to 28.7 µM
Outline: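 Luminescence readout; reporter = integrated firefly luciferase in P. falciparum. RBC culture at 2% hematocrit, 0.1% parasitemia final, 37 C/5% CO2; decreased signal taken as growth inhibition.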
Potency is the fitted concentration of half-maximal effect; tags give direction and shape of the fitted curve.

Compound	Potency
O=C(Nc1ccc(C(F)(F)F)cc1)c1cc(-c2cccnc2)nc2ccc(Br)cc12	active: 0.37 µM
COc1cc(/C=C2\SC(=S)N(NS(=O)(=O)c3ccc(C)cc3)C2=O)ccc1O	inconclusive [inhibitor, single point]
Cc1ccc(OCC(=O)N2CCN(S(=O)(=O)c3ccccc3[N+](=O)[O-])CC2)cc1	active: 9.28 µM
COc1ccccc1N1CCN(/N=C/c2cc(OC)c(O)c(OC)c2)CC1	inactive
N#C/C(=C\c1ccc(O)c(O)c1)C(=O)Nc1cccc2ncccc12	inconclusive [inhibitor, partial curve, poor fit]
CCOc1ccccc1NC(=S)NC(=O)C1CCCCC1	inconclusive [inhibitor, single point]
Cc1ccc(Cn2cc(C=O)c(-c3ccc(C)cc3)n2)cc1	inactive
COc1cc(-c2nnc(COC(=O)CSCC(=O)Nc3cc(C)on3)o2)cc(OC)c1OC	inconclusive [inhibitor, single point]
COCc1ccc([C@@H]2C[C@H]3CN(Cc4cccc(Cl)c4)C(=O)[C@]34CCCN24)o1	inconclusive [inhibitor, single point]
COc1ccccc1-c1cc(-c2ccc(C)cc2)nc(SCc2nnc(-c3ccccc3)o2)c1C#N	inconclusive [inhibitor, full curve]
O=C(O)C1CC=CCC1C(=O)N1CCN(c2nc(-c3ccccc3Cl)c3cc(Br)ccc3n2)CC1 (centres undefined)	active: 11.7 µM
COc1ccc(-c2csc3ncnc(N4CCN(S(=O)(=O)c5cccs5)CC4)c23)cc1	inconclusive [inhibitor, single point]
c1ccc(CNc2nc(-c3cccs3)nc3ccccc23)cc1	inconclusive [inhibitor, single point]
Cc1ccc(NS(=O)(=O)c2cccc(C(=O)NCC(c3ccco3)N3CCCC3)c2)cc1 (centres undefined)	active: 13.1 µM
COc1ccc(OC)c(S(=O)(=O)N2CCCC2C(=O)N2CCc3ccccc3C2)c1 (centres undefined)	inactive
Clc1ccc(Cn2c(/C=C/c3ccco3)nc3ccccc32)cc1	inconclusive [inhibitor, single point]
O=[N+]([O-])c1ccc(OC/C=C2\Oc3ccc([N+](=O)[O-])cc3C2N2CCOCC2)cc1 (centres undefined)	inconclusive [inhibitor, single point]
CC(=O)Oc1cc2cccc(OC(C)=O)c(=O)c2c(OC(C)=O)c1OC(C)=O	inconclusive [inhibitor, partial curve]
CCOC(=O)c1cnc(-n2nc(C)cc2C)nc1NNc1cc(-c2ccccc2)nc(C)n1	inconclusive [inhibitor, full curve]
CCn1c(=O)c(=O)[nH]c2cc(C(=O)Nc3ccc(S(=O)(=O)N4CCCC4)cc3)ccc21	inconclusive [inhibitor, partial curve, poor fit]
O=C(CSc1ccccn1)N/N=C/c1cc([N+](=O)[O-])ccc1O	inconclusive [inhibitor, single point]
COc1ccc(C(=O)NNC(=O)CSc2ccccc2)cc1	inactive

Compound	Potency
COc1ccc(N2CCN(C(=O)c3ccc(NS(=O)(=O)c4cccs4)cc3)CC2)cc1	inconclusive [inhibitor, single point]
CN(C)c1nc(-c2ccccc2)[n+](C)s1	active: 11.7 µM
O=C(c1cnccn1)N(c1ccccc1)C1(C(=O)NC2CCCCC2)CCCCC1	inconclusive [inhibitor, single point]
Oc1ccc(CNc2ccccc2F)c2cccnc12	active: 1.47 µM
O=[N+]([O-])c1ccc(N2CCCCC2)s1	inactive
COc1ccc(CCN2CCCC(CN(C)Cc3cccc(OC)c3)C2)cc1 (centres undefined)	inconclusive [inhibitor, partial curve, poor fit]
Nc1cc(=O)nc(SCC(=O)Nc2cccc3ccccc23)n1CCc1ccccc1	inconclusive [inhibitor, partial curve]
COc1ccc(N2CCN(c3oc(COc4ccccc4Cl)nc3C#N)CC2)cc1	inconclusive [inhibitor, single point]
CCCc1cc(C(=O)N/N=C/c2ccc(CC)s2)c2ccccc2n1	inconclusive [inhibitor, single point]
COc1ccc(NC(=O)c2cccc(NC3=NC4CS(=O)(=O)CC4S3)c2)cc1Cl (centres undefined)	inactive
CCOC(=O)c1cnc2ccc(Br)cc2c1NCCCN1CCOCC1	inconclusive [inhibitor, single point]
CC(=O)c1c[nH]c(C(=O)NC2CCCCCC2)c1	inactive
COc1ccc(NC(=O)c2ccc(-n3c(C)ccc3C)cc2)c(OC)c1	inconclusive [inhibitor, single point]
CCCCCCCCCCC(CO)CCCCCCCC (centres undefined)	inconclusive [inhibitor, single point]
CCCCNC(=O)N(O)C1N(CCCC)C(=O)N(CC(=O)OC)C1(C)C (centres undefined)	inactive
COc1ccc(C2SCC(=O)N2CCc2ccc(OC)c(OC)c2)cc1 (centres undefined)	inconclusive [inhibitor, partial curve]
O=C(CNC(=O)c1ccccc1Br)N/N=C/c1cccnc1	inactive
CCN(CC)c1ccc(N=Cc2c(O)n(CCc3ccc(OC)c(OC)c3)c(=O)[nH]c2=O)cc1	active: 7.38 µM
O=C1C2C3CCCC3=C3CCCC3C2C(=O)N1c1ccc(Cl)cc1 (centres undefined)	inconclusive [inhibitor, single point]
CCOc1cc(CNn2nnnc2N)cc(Cl)c1OCC(=O)NC(C)(C)C	inconclusive [inhibitor, single point]
C#CCSc1nc2ccccc2n1C(=O)c1ccc(S(=O)(=O)N2CCCCC2)cc1	inactive
CCO[C@H]1OC(C(=O)N2CCN(Cc3ccc4c(c3)OCO4)CC2)=C[C@@H](c2ccc(Br)cc2)[C@@H]1CCCO	active: 10.4 µM
